Measurements: article PMC6104169
Results are given in words; binding and its absence hold for the method and conditions named. For some assays here: In cells and extracts the contact can be indirect. Some entries that bind do so weakly or less than the wild type. For some assays here: Where a sequence is shown, tags or fusion partners need not be part of it.

Sequences of proteins named here, by UniProt entry; tags and fusion partners are left off. A change or cut given only in a name is not applied to a line headed by its entry. A line that says so, or that is headed by a name, gives the form on record, which may keep a tag or linker. Residues count along the entry.
UniProt P42227: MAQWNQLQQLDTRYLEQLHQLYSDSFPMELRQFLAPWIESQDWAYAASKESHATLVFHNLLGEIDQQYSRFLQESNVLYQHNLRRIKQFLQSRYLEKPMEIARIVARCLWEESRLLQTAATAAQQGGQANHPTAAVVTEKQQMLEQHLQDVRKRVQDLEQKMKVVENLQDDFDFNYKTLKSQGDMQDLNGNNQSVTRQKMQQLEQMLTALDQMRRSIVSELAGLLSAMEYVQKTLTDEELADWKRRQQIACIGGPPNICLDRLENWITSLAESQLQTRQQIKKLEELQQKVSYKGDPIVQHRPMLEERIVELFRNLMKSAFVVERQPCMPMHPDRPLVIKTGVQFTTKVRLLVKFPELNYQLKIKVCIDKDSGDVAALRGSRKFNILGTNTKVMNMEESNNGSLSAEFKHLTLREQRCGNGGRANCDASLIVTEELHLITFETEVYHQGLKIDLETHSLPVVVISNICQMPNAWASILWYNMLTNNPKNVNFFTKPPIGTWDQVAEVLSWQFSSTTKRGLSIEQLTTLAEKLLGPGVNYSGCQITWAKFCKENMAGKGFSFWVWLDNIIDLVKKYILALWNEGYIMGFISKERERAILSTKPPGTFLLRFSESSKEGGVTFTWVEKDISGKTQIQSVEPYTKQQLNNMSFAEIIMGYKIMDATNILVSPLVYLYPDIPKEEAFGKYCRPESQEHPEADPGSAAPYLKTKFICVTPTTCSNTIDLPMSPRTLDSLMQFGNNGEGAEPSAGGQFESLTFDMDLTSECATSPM
HA-tagged NTD of STAT3(1–134): residues 1-134 of P42227
BD-134K (STAT3 N-terminal domain, 1–134 aa, change from E to K at position 16) (P42227, form named): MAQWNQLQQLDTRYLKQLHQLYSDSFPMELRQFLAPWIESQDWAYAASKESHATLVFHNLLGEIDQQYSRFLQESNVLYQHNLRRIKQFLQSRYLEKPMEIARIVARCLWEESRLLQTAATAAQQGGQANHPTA
UniProt Q9WVL2: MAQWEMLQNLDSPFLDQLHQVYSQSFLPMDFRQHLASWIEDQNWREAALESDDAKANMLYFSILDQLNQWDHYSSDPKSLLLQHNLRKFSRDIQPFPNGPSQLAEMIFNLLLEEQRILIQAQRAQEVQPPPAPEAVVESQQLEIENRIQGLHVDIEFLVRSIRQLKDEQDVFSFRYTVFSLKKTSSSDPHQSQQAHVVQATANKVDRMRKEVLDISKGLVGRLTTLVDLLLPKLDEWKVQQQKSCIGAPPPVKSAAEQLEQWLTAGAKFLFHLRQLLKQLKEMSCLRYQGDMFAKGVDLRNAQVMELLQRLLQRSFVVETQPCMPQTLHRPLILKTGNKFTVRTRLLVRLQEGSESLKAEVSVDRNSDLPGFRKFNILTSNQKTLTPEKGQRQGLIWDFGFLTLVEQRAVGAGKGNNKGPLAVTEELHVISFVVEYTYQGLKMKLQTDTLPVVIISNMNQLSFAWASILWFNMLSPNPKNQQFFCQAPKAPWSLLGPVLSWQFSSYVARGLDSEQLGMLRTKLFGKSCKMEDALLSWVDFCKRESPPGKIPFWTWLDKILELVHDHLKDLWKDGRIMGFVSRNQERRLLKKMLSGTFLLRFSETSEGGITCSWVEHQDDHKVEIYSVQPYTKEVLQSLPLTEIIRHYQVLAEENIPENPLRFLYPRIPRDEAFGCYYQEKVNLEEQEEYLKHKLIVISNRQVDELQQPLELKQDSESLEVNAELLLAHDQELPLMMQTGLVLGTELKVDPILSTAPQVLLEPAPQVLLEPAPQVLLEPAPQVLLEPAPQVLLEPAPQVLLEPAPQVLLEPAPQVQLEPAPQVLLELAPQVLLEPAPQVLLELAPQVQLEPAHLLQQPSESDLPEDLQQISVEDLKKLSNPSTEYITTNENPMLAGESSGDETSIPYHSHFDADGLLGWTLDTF

What was measured:
[1] = biological target: T1, endogenous PLSCR2 (ML-1 cells) (mouse (endogenous in ML-1)) (UniProt Q9DCW2); assay: co-IP; ML-1 cells stimulated with mouse IFN-α4 (1,000 U/ml) for the indicated times or untreated; immunoprecipitated with anti-PLSCR2 antibody, immunoblotted for pSTAT3 and STAT3; endogenous proteins
T1 sequence: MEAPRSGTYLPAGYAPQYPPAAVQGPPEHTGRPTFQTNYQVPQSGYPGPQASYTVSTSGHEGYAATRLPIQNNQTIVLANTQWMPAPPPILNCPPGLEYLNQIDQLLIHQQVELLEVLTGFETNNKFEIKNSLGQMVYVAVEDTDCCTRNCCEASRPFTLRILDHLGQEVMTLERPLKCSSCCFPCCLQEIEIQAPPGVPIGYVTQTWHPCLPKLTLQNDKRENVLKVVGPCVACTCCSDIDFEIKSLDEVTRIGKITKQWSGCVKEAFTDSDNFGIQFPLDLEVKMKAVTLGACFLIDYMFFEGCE

[2] = biological target: HA-tagged full-length STAT3(1–770) (UniProt P42227); assay: co-IP; prey fragments expressed in HEK293T cells, tested with full-length STAT3 or STAT3ΔN (Figure S1F; legend not shown)
[3] = biological target: HA-tagged NTD of STAT3(1–134) (UniProt P42227); assay: co-IP; HEK293T cells cotransfected with HA-tagged and myc-tagged constructs; rabbit anti-HA antibody on protein A agarose, IP lysis buffer (300 mM NaCl, 50 mM HEPES pH 7.6, 1% Triton X-100), 4°C overnight; immunoblot with anti-myc and anti-HA; in Figure 1C with or without human IFN-α2 (1,000 U/ml, 30 m)
[4] = biological target: T2, HA-tagged murine STAT1 (pLPC-FH2) (mouse) (UniProt P42225); assay: as above
T2 sequence: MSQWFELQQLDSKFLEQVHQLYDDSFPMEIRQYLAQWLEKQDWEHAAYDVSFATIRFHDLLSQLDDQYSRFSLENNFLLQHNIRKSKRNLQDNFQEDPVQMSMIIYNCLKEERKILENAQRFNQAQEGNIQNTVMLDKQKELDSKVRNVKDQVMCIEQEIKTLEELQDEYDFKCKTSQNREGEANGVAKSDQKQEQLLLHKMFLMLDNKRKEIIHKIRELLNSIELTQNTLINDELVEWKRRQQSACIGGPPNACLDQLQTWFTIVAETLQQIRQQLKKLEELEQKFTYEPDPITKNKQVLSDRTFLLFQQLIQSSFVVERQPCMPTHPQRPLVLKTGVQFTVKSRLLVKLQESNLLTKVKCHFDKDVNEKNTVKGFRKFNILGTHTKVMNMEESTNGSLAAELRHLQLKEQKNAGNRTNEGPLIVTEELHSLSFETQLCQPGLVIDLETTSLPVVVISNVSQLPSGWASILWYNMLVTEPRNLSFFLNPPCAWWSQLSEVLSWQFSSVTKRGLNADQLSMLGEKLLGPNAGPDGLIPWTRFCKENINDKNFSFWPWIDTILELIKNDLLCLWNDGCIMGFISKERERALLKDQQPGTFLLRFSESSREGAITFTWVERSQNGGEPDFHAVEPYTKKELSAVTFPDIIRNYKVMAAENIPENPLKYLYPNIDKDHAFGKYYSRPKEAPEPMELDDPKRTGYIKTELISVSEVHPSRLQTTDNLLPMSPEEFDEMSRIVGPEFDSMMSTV

[5] = biological target: HA-tagged full-length STAT3(1–770) (UniProt P42227); assay: as above
[6] = biological target: T3, HA-tagged murine IRF9 (pLPC-FH2) (mouse) (UniProt Q61179); assay: as above
T3 sequence: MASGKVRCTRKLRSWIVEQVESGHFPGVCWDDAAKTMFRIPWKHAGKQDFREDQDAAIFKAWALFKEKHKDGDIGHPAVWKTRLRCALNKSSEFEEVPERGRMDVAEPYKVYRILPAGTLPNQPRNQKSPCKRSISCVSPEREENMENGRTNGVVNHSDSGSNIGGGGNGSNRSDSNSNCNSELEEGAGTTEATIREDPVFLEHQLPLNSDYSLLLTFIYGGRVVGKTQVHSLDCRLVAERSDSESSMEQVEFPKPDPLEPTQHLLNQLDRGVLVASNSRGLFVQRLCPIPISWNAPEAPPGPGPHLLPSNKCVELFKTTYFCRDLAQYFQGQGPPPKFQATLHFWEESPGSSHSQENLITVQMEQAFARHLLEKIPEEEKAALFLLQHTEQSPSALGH

[7] = biological target: HA-tagged murine STAT2 (pLPC-FH2) (mouse) (UniProt Q9WVL2); assay: as above
[8] = biological target: endogenous STAT2 (ML-1 nuclear extracts) (mouse (endogenous in ML-1)) (UniProt Q9WVL2); assay: co-IP; endogenous PLSCR2 co-immunoprecipitated by anti-STAT2 or anti-STAT1 antibody (Figure S6D; legend not shown)
[9] = biological target: BD-134K (STAT3 N-terminal domain, 1–134 aa, change from E to K at position 16) (mouse) (UniProt P42227); assay: two-hybrid; yeast two-hybrid screen; bait BD-134K against a normalized mouse cDNA library, ~2 × 10^6 transformants

endogenous STAT3 (ML-1 cells) (from UniProt P42227 1-770)
binding [1]: binds

endogenous tyrosine-phosphorylated STAT3 (pY-STAT3, ML-1 cells treated with IFN-α4) (from UniProt P42227 1-770)
binding [1]: binds

B1: myc-PLSCR2(109–307) (ΔN) (domain or fragment, UniProt Q9DCW2 109-307)
chain: HQQVELLEVLTGFETNNKFEIKNSLGQMVYVAVEDTDCCTRNCCEASRPFTLRILDHLGQEVMTLERPLKCSSCCFPCCLQEIEIQAPPGVPIGYVTQTWHPCLPKLTLQNDKRENVLKVVGPCVACTCCSDIDFEIKSLDEVTRIGKITKQWSGCVKEAFTDSDNFGIQFPLDLEVKMKAVTLGACFLIDYMFFEGCE
binding [2]: binds | binding [3]: binds

B2: myc-tagged full-length murine PLSCR2(1–307) (protein, UniProt Q9DCW2 1-307)
chain: MEAPRSGTYLPAGYAPQYPPAAVQGPPEHTGRPTFQTNYQVPQSGYPGPQASYTVSTSGHEGYAATRLPIQNNQTIVLANTQWMPAPPPILNCPPGLEYLNQIDQLLIHQQVELLEVLTGFETNNKFEIKNSLGQMVYVAVEDTDCCTRNCCEASRPFTLRILDHLGQEVMTLERPLKCSSCCFPCCLQEIEIQAPPGVPIGYVTQTWHPCLPKLTLQNDKRENVLKVVGPCVACTCCSDIDFEIKSLDEVTRIGKITKQWSGCVKEAFTDSDNFGIQFPLDLEVKMKAVTLGACFLIDYMFFEGCE
binding [4]: no binding | binding [5]: binds | binding [6]: no binding | binding [7]: binds | binding [3]: binds

B3: myc-PLSCR2(171–307) (domain or fragment, UniProt Q9DCW2 171-307)
chain: MTLERPLKCSSCCFPCCLQEIEIQAPPGVPIGYVTQTWHPCLPKLTLQNDKRENVLKVVGPCVACTCCSDIDFEIKSLDEVTRIGKITKQWSGCVKEAFTDSDNFGIQFPLDLEVKMKAVTLGACFLIDYMFFEGCE
binding [3]: binds

B4: endogenous PLSCR2 (ML-1 cells) (protein, UniProt Q9DCW2 1-307)
chain: MEAPRSGTYLPAGYAPQYPPAAVQGPPEHTGRPTFQTNYQVPQSGYPGPQASYTVSTSGHEGYAATRLPIQNNQTIVLANTQWMPAPPPILNCPPGLEYLNQIDQLLIHQQVELLEVLTGFETNNKFEIKNSLGQMVYVAVEDTDCCTRNCCEASRPFTLRILDHLGQEVMTLERPLKCSSCCFPCCLQEIEIQAPPGVPIGYVTQTWHPCLPKLTLQNDKRENVLKVVGPCVACTCCSDIDFEIKSLDEVTRIGKITKQWSGCVKEAFTDSDNFGIQFPLDLEVKMKAVTLGACFLIDYMFFEGCE
binding [8]: binds

B5: PLSCR2 prey fragment (109–307 aa), yeast two-hybrid (domain or fragment, UniProt Q9DCW2 109-307)
chain: HQQVELLEVLTGFETNNKFEIKNSLGQMVYVAVEDTDCCTRNCCEASRPFTLRILDHLGQEVMTLERPLKCSSCCFPCCLQEIEIQAPPGVPIGYVTQTWHPCLPKLTLQNDKRENVLKVVGPCVACTCCSDIDFEIKSLDEVTRIGKITKQWSGCVKEAFTDSDNFGIQFPLDLEVKMKAVTLGACFLIDYMFFEGCE
binding [9]: binds

B6: myc-PLSCR2(1–116) (NTD) (domain or fragment, UniProt Q9DCW2 1-116)
chain: MEAPRSGTYLPAGYAPQYPPAAVQGPPEHTGRPTFQTNYQVPQSGYPGPQASYTVSTSGHEGYAATRLPIQNNQTIVLANTQWMPAPPPILNCPPGLEYLNQIDQLLIHQQVELLE
binding [3]: no binding

B7: myc-PLSCR2(188–307) (domain or fragment, UniProt Q9DCW2 188-307)
chain: LQEIEIQAPPGVPIGYVTQTWHPCLPKLTLQNDKRENVLKVVGPCVACTCCSDIDFEIKSLDEVTRIGKITKQWSGCVKEAFTDSDNFGIQFPLDLEVKMKAVTLGACFLIDYMFFEGCE
binding [3]: no binding
